Measured values published in the antibiotic and cytotoxicity screens of Wong et al. (2023).
This is one part of the list.

Experiments:
HSkMC = human skeletal muscle cells; assay: cytotoxicity call (relative viability < 0.9); conditions: 10 µM
HepG2 = assay: cytotoxicity call (relative viability < 0.9); conditions: 10 µM
S. aureus RN4220 = assay: growth inhibition call (relative growth <= 0.2); conditions: 50 µM

SMILES	cytotoxicity call (HSkMC)	cytotoxicity call (HepG2)	growth inhibition call (S. aureus RN4220)
COC(=O)Cc1c(C)[nH]c(=S)[nH]c1=O	inactive	inactive	inactive
COc1ccc(CNC(=O)C[C@@H]2CC[C@H]3[C@@H](COC[C@H](O)CN3S(=O)(=O)c3ccc(OC)cc3)O2)cc1	inactive	inactive	inactive
C[C@H]1CN([C@@H](C)CO)S(=O)(=O)c2ccc(C#Cc3cccc(F)c3)cc2O[C@@H]1CN(C)S(=O)(=O)c1ccccc1F	inactive	inactive	inactive
C[C@H]1CCCCO[C@@H](CN(C)C(=O)Cc2ccccc2)[C@@H](C)CN([C@@H](C)CO)C(=O)c2cc(NC(=O)CCC(F)(F)F)ccc2O1	inactive	inactive	inactive
C[C@@H]1CCCCO[C@@H](CN(C)S(=O)(=O)c2cccs2)[C@H](C)CN([C@@H](C)CO)C(=O)c2cc(NC(=O)Nc3ccc4c(c3)OCO4)ccc2O1	inactive	inactive	inactive
CO[C@H](CN(C)C(=O)c1ccc2c(c1)OCO2)[C@@H](C)CN([C@H](C)CO)S(=O)(=O)c1ccc(Cl)cc1	inactive	inactive	inactive
C[C@H]1CN([C@@H](C)CO)C(=O)c2cc(Br)cnc2O[C@H]1CN(C)Cc1ccc2c(c1)OCO2	inactive	inactive	inactive
CCc1nc2[nH]c(C)cc(=O)n2n1	inactive	inactive	inactive
Cc1ccc(S(=O)(=O)N(C)C[C@@H]2Oc3ccc(NS(=O)(=O)c4ccc(F)cc4)cc3CC(=O)N([C@@H](C)CO)C[C@H]2C)cc1	inactive	inactive	inactive
C[C@@H]1CN([C@H](C)CO)C(=O)Cc2cc(NC(=O)Nc3ccc(F)cc3)ccc2O[C@@H]1CN(C)S(C)(=O)=O	inactive	inactive	inactive
COc1ccc(S(=O)(=O)N(C)C[C@@H]2OCCCC[C@@H](C)Oc3ccc(NC(=O)NC4CCCCC4)cc3C(=O)N([C@H](C)CO)C[C@@H]2C)cc1	inactive	inactive	inactive
C[C@@H]1CCCCO[C@H](CN(C)C(=O)NC2CCCCC2)[C@H](C)CN([C@@H](C)CO)C(=O)c2cc(NC(=O)Nc3ccc(C(F)(F)F)cc3)ccc2O1	inactive	inactive	inactive
N#C[C@H](N)c1ccc(Cl)cc1	inactive	inactive	inactive
COc1ccc(S(=O)(=O)Nc2ccc3c(c2)C(=O)N([C@H](C)CO)C[C@H](C)[C@H](CN(C)S(=O)(=O)c2ccccc2)O3)cc1	inactive	inactive	inactive
C[C@@H]1CCCCO[C@H](CN(C)C(=O)CCC(F)(F)F)[C@@H](C)CN([C@H](C)CO)C(=O)c2cc(NS(=O)(=O)c3ccccc3)ccc2O1	inactive	inactive	inactive
COc1ccc2cc1Oc1ccc(cc1)C[C@H]1c3cc(c(OC)cc3CCN1C)Oc1c(OC)c(OC)cc3c1[C@H](C2)N(C)CC3	inactive	active	inactive
